Reference: PubChem BioAssay AID1030 (National Center for Advancing Translational Sciences (NCATS), 2008)
About 16,000 (7.3%) of roughly 220,000 compounds were called active. The inconclusive results got no clear call from the source; some entries with a clear call stand among them for comparison. The call rests on the fitted dose curve; in most records, active means well fitted inhibition curve with a large enough effect (not every such curve was filed as active); inconclusive means small, poorly fitted or top-dose-only effect, or another doubt; inactive means no such curve, though single readings can be large or run the other way. Potencies of inconclusive entries are left out as doubtful fits.

Each compound was assayed against Aldehyde dehydrogenase 1A1 (Homo sapiens) (UniProt P00352) (assay: qHTS Assay for Inhibitors of Aldehyde Dehydrogenase 1 (ALDH1A1)). Settings: Purified ALDH1A1, NADH fluorescence, propionaldehyde substrate; series mostly up to 75.3 µM; activity, negative = inhibition: at the top concentration.
Chain of UniProt P00352 (P00352 whole entry, looked up): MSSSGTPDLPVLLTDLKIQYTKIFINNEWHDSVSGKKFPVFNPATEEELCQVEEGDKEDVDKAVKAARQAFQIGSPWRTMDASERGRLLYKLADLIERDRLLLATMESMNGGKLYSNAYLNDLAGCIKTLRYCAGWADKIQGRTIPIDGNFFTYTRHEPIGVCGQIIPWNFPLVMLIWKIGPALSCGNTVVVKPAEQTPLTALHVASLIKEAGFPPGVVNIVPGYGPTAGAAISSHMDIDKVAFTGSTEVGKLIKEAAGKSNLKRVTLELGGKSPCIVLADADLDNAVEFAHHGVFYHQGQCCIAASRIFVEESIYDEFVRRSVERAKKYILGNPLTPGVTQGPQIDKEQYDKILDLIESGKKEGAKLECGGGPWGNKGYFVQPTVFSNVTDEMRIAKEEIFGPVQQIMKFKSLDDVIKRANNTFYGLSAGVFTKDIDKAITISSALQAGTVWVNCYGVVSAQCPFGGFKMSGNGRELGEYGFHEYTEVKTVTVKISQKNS
Potency means the concentration at half of the fitted maximal effect; tags describe the fitted curve by direction and shape.
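Wherever activity, negative = inhibition is given: plate controls were no enzyme wells and a reference inhibitor.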

SMILES	Potency	activity, negative = inhibition
C=C(C)C(=O)Nc1nnc(-c2ccccc2C)s1	active: 7.94 µM	
Cc1ccc(S(=O)(=O)CCSc2nc(C)cc(C(F)(F)F)c2C#N)cc1	active: 0.355 µM	
CCOC(=O)C1CCCN(C(=O)c2cn(CC)c3ccc(S(=O)(=O)N4CCCC4)cc3c2=O)C1 (configuration not stated)	inconclusive [inhibitor, single point]	
COC(=O)C1=CN(CC2CCCO2)C=C(C(=O)OC)C1c1cc(OC)c(OC)c(OC)c1 (configuration not stated)	inconclusive [inhibitor, partial curve]	
O=C(C1CCN(S(=O)(=O)c2cccc([N+](=O)[O-])c2)CC1)N1CCOCC1		inactive: -3.96%
O=C(N[C@@H](Cc1ccccc1)C(=O)CCl)OCc1ccccc1	active: 0.355 µM	
Cc1cccc(N2CCN(Cc3ccoc3)CC2)c1C	active: 25.1 µM	
Cc1ccc(-c2cc(-c3ccc(F)cc3)nc(N)c2C#N)o1	inconclusive [inhibitor, partial curve]	
CC(C(=O)Nc1ccc2c(c1)OCCO2)N1CCN(C(=O)c2ccco2)CC1 (configuration not stated)		inactive: 4.43%
Oc1ccc(-c2onc3ccc(Cl)cc23)cc1	active: 11.2 µM	
O=C(O)c1cccc(NCc2ccncc2)c1	inconclusive [inhibitor, single point]	
O=c1c2cc(NC(=S)NCc3cccnc3)ccc2nc2n1CCCCC2	inconclusive [inhibitor, partial curve, poor fit]	
COc1ccc2c(c1)[C@]1(C)CCC(=O)C[C@H]1CC2	active: 2.82 µM	
O=c1c([N+](=O)[O-])c(N2CCCC2)c2ccccc2n1-c1ccccc1		inactive: -3.54%
O=C(N/N=C/c1ccccn1)c1ccc(N/N=C/c2ccccn2)cc1	inconclusive [inhibitor, single point]	
C/C(=N\Nc1ccc([N+](=O)[O-])cc1[N+](=O)[O-])c1ccc(-n2nncc2C(C)(C)C)cc1	inconclusive [inhibitor, single point]	
CC(=O)Oc1ccc(C(=O)[C@H]2[C@H]3C(=O)N(c4ccc(C)cc4)C(=O)[C@H]3[C@@H]3C=CC=NN32)cc1	active: 20 µM	
CCCCSc1cnn(-c2ccccc2)c(=O)c1SCCCC		inactive: 6.84%
O=C(NC(=S)Nc1cccnc1)c1cccs1	inconclusive [inhibitor, single point]	
Nc1nc(-c2ccc(C(=O)O)cc2)cs1	inconclusive [inhibitor, partial curve]	
CC(C)(C)OC(=O)NCc1nc(N)n[nH]1		inactive: 16.9%
Cc1cc2ccccc2c(=O)n1CC(=O)NCC1COc2ccccc2O1 (configuration not stated)	inconclusive [inhibitor, partial curve]	
